± gives the standard deviation of the averaged measurements. Whole data set: some 33,000 sequences, median “E-score (dimensionless, -0.5 to 0.5)” near -0.049, cut for the highest 2% near 0.37. This is one part of the list.
tested on: T1, PmTbr T-box DNA-binding domain (GST fusion); assay: PBM E-score of 8-mer (E-score (dimensionless, -0.5 to 0.5)); Tbr is Tbrain of the sea star Patiria miniata (Pm) or the sea urchin Strongylocentrotus purpuratus (Sp); higher = stronger binding preference; most listed sequences are background and not binding sites; settings: the construct has about 5 more residues each side
T1 sequence: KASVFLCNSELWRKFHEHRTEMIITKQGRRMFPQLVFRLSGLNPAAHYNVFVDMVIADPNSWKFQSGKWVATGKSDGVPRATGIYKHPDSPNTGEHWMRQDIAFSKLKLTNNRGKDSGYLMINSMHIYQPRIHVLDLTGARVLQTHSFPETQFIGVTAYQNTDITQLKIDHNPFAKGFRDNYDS
Method in brief: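 GST-fused Tbr T-box DNA-binding domains (the whole T-box plus about five flanking residues) were expressed in BL21 E. coli at 20 °C and purified by glutathione affinity chromatography. Universal Agilent oligonucleotide arrays were made double-stranded by primer extension, incubated with 200 nM protein in PBS (pH 7.5), then scanned and quantified. Every ungapped 8-mer was scored from probe intensities. The Universal PBM Analysis Suite gave each word an enrichment E-score, averaged over duplicate arrays.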

Sequence	PBM E-score of 8-mer
CAGGGCAA	-0.183 ± 0.024
AGTCAACA	0.269 ± 0.022
GTACAATA	-0.305 ± 0.031
TACGGCGA	-0.141 ± 0.045
AGAGCATC	-0.226 ± 0.1
GGCGGCGA	0.0111 ± 0.049
CCTATAAC	-0.0211 ± 0.05
CCGAGTAC	-0.109 ± 0.036
ACTTGGCT	-0.171 ± 0.04
AGCTATTC	-0.132 ± 0.065
CACCCGAG	0.0779 ± 0.017
GGCGCTCA	-0.00054 ± 0.07
CTAACAGA	0.183 ± 0.008
GATCTCCC	-0.151 ± 0.094
ATGCAGTC	-0.0466 ± 0.011
ACAACAAT	0.109 ± 0.024
AATAAAGG	-0.228 ± 0.0042
TGAGTTAA	-0.141 ± 0.077
AGCTCCTG	-0.0536 ± 0.084
AGAAGCCG	-0.187 ± 0.012
CCCAAGAG	-0.0986 ± 0.002
AGGGCACC	-0.13 ± 0.0072
AGCGACTC	0.0803 ± 0.0075
GTGGTGTA	0.1994 ± 0.0016
GCTAGTCA	-0.0356 ± 0.004

Sequence	PBM E-score of 8-mer
GGTGAAAA	0.2007 ± 0.0014
CGCAGAGA	-0.2281 ± 0.001
AATAAATA	-0.162 ± 0.023
CATGGATC	-0.135 ± 0.015
AGTATGCC	-0.161 ± 0.15
CTAGCTCA	-0.0717 ± 0.031
AGGAGCAA	-0.0899 ± 0.02
CTGGTCGA	-0.0334 ± 0.002
GATAGTTA	0.09234 ± 0.00081
AATTCGAA	-0.254 ± 0.07
ACGGTTTC	0.00425 ± 0.025
ACGTCTCA	-0.0332 ± 0.033
GCACATAC	0.21 ± 0.02
CACGTGAG	0.188 ± 0.011
CCGCAAAG	-0.232 ± 0.0091
GCCCGATA	-0.107 ± 0.056
CGTAGTAA	-0.0775 ± 0.049
AATGCGAT	0.024 ± 0.0098
ACAGACGA	-0.24 ± 0.0034
AATCCAGG	-0.0711 ± 0.054
TCCGAGCA	-0.234 ± 0.0011
AAGATATG	-0.00924 ± 0.0019
GAAGGCAA	-0.161 ± 0.079
ACCTAGCA	0.271 ± 0.018
CCAAAGGC	0.0614 ± 0.038

Sequence	PBM E-score of 8-mer
ACGTCAGC	-0.126 ± 0.061
AGCCAATC	-0.0275 ± 0.0016
GCTATGAC	0.0747 ± 0.036
CCGTCACG	0.23 ± 0.065
GAGTGGAA	0.0808 ± 0.014
AGGGCCAA	-0.31 ± 0.063
TGATTGCA	0.0943 ± 0.049
ACCCGCAC	0.202 ± 0.062
CAGGGATC	-0.0878 ± 0.057
GACAAATA	0.142 ± 0.029
AGGACTCG	-0.0254 ± 0.07
CAGACGGG	0.0786 ± 0.0097
AGGATTGC	0.0509 ± 0.034
AAATCCCG	-0.135 ± 0.038
CGCCGCTC	-0.231 ± 0.024
ATGATATC	0.0392 ± 0.088
CCCCACGC	-0.0993 ± 0.028
ATGAGCCA	-0.233 ± 0.022
CCCGCCTA	-0.00776 ± 0.11
GGATTAAC	0.0329 ± 0.085
CGTCTAGC	-0.0353 ± 0.096
AATAAGAC	-0.0961 ± 0.025
AAGCCCGA	-0.0694 ± 0.029
ATCGACCA	0.148 ± 0.015
CGAGAATC	0.203 ± 0.038

Sequence	PBM E-score of 8-mer
ACACAATC	0.242 ± 0.037
TGTCAGAA	0.17 ± 0.033
ACGTTGAA	0.0133 ± 0.026
ATGCAACC	0.0283 ± 0.0036
GCTACAAA	-0.0924 ± 0.012
CACTATTC	0.074 ± 0.0016
AAGGATGA	-0.184 ± 0.088
CATGCACG	0.122 ± 0.0017
AAGTTCGG	-0.00611 ± 0.0034
CTGGACCA	-0.115 ± 0.0055
AAGAGATG	-0.132 ± 0.085
GGTGCCAA	0.454 ± 0.006
ACACTTGG	0.395 ± 0.0073
ATCGGCTC	-0.223 ± 0.062
ACTTCGAG	0.159 ± 0.0079
AGAATTCC	-0.115 ± 0.053
AGACGTTA	-0.144 ± 0.038
GACCTTGA	-0.166 ± 0.025
AGGTAGGG	-0.0541 ± 0.14
AAACATCA	-0.107 ± 0.043
GGGTCTAC	-0.2753 ± 0.0013
GGTCAGGA	-0.113 ± 0.042
CTGTTAGA	0.118 ± 0.0087
GGATAGCA	0.102 ± 0.025
CTTCCTAC	-0.225 ± 0.029

Sequence	PBM E-score of 8-mer
CTAACTTA	-0.143 ± 0.0033
GAACCAGC	-0.0953 ± 0.0037
ATAGTGTG	0.393 ± 0.033
GCACCTGC	0.395 ± 0.018
CACGGATC	-0.107 ± 0.033
ACCTAAAT	0.0258 ± 0.021
ATCGCAGA	-0.00716 ± 0.061
ACTAAGCG	-0.112 ± 0.027
ACCCTAAC	-0.00485 ± 0.028
GTGAGTGA	0.181 ± 0.011
GACTACAC	0.0511 ± 0.078
AATGATAG	-0.0973 ± 0.0096
ATCGTTTG	-0.0168 ± 0.0081
GCCAAAGC	0.015 ± 0.0095
TACCGACA	0.0834 ± 0.041
AAATGGTC	-0.257 ± 0.006
AAAGCCAT	-0.176 ± 0.036
CGCATTCC	-0.0478 ± 0.021
ATCTCAGC	0.08553 ± 0.00043
AACATCAG	-0.183 ± 0.029
CACGGCAA	-0.0259 ± 0.0024
CACAGGGC	-0.00521 ± 0.056
CGTGCCCA	-0.173 ± 0.011
TACGGAAA	-0.139 ± 0.015
ACGACACT	0.298 ± 0.0045

Sequence	PBM E-score of 8-mer
AGCCCATC	-0.295 ± 0.052
ACAGTCGC	0.195 ± 0.0033
CCGACCAA	-0.0414 ± 0.0038
GGGCAGCA	0.0782 ± 0.015
AGGCTCGA	-0.135 ± 0.02
CCACTCTC	-0.167 ± 0.082
GTTAATAA	0.0969 ± 0.021
CTGTCGAC	0.197 ± 0.0091
GCAAGACA	0.0617 ± 0.013
TGGCCCAA	-0.215 ± 0.0058
CCACGGCG	-0.00334 ± 0.056
CCGGTGGA	-0.231 ± 0.023
ACGAGTGG	0.0903 ± 0.009
AGTGATTG	-0.00764 ± 0.076
ATTCTAGA	-0.0901 ± 0.038
ACGTCGTA	-0.0172 ± 0.031
AAGGTAGG	-0.104 ± 0.028
AACGGTCT	-0.201 ± 0.043
AAACACTG	0.0567 ± 0.13
CAGGTCAA	-0.115 ± 0.037
GGACGCCC	-0.228 ± 0.046
TGGTGAAA	-0.00301 ± 0.06
GAGGAAAA	-0.0833 ± 0.022
CGATCATA	-0.132 ± 0.03
CCAGGTCG	0.0426 ± 0.013

Sequence	PBM E-score of 8-mer
TAAAACCA	-0.0938 ± 0.019
ATCTGCGC	0.0547 ± 0.029
ACGCGCTA	0.327 ± 0.011
GCATGCAA	-0.0272 ± 0.00095
CAGGCAAG	-0.234 ± 0.059
CTTCAGTA	0.0389 ± 0.053
CTGCAGCA	0.0651 ± 0.058
CGCCGCCC	-0.0469 ± 0.0038
AGCGAAAG	-0.0461 ± 0.031
ACCGCTAA	0.128 ± 0.0081
CATTATCA	0.14 ± 0.011
AGACAATA	-0.0337 ± 0.049
GCGAGAGC	0.21 ± 0.015
AATTTAAT	-0.259 ± 0.062
AATTTGCT	0.0793 ± 0.04
CAAATGCA	-0.294 ± 0.014
GCAAATGA	-0.0879 ± 0.066
CGAAAGAG	0.0571 ± 0.031
TAGTATGA	-0.104 ± 0.019
CCGAGCCA	-0.0517 ± 0.14
AAGTGATC	0.0541 ± 0.026
CTCGGTCA	-0.123 ± 0.0027
TCAGGAAA	0.0619 ± 0.025
ATATTGGA	-0.211 ± 0.031
GATTACGC	-0.0298 ± 0.1

Sequence	PBM E-score of 8-mer
TAGTGGGA	-0.0944 ± 0.019
ACCCGGGG	-0.0323 ± 0.015
AGAGCGAG	-0.162 ± 0.044
CCTACGCC	0.0658 ± 0.054
ACACACCA	0.285 ± 0.011
GTAGACGA	-0.228 ± 0.048
ATCACGCC	0.372 ± 0.017
GCATCATA	0.0365 ± 0.047
ACATAGGT	0.243 ± 0.027
GACCAACA	-0.0246 ± 0.058
ATAGAAGA	-0.297 ± 0.1
TCATAGAA	-0.31 ± 0.041
GACGATAC	-0.174 ± 0.059
AGAGCCCC	0.0265 ± 0.036
ACACTTGA	0.369 ± 0.029
CCACATAC	0.0347 ± 0.077
GAAAGTAC	-0.114 ± 0.11
GGAGCGAA	-0.015 ± 0.018
ATGGCATC	-0.137 ± 0.03
AGATTTCA	0.0541 ± 0.015
TATTAAGA	-0.121 ± 0.19
GTATTTGA	-0.153 ± 0.03
ATCTATTC	0.0376 ± 0.064
CGTCGCAC	0.332 ± 0.021
ACGGGATG	-0.0745 ± 0.051

Sequence	PBM E-score of 8-mer
CCTGTTCC	-0.185 ± 0.093
GGGCAGTA	-0.118 ± 0.073
GGGTCACA	0.188 ± 0.011
CGGTACGC	0.005 ± 0.0049
CGCCATAA	0.185 ± 0.073
GAGAACAC	0.249 ± 0.052
GAACCACA	-0.0723 ± 0.062
TCGAAGCA	-0.141 ± 0.0046
ACCCAGAT	-0.112 ± 0.093
ATAAGTCC	-0.249 ± 0.035
CGGACGTC	-0.149 ± 0.0048
GACGTGAC	0.268 ± 0.017
TACGGACA	-0.228 ± 0.053
AGAATGTC	-0.2747 ± 0.0016
ATCTTGTA	-0.2 ± 0.023
ACACAATA	0.252 ± 0.029
TACACGCA	0.0912 ± 0.0092
TAAGCCAA	-0.357 ± 0.021
GACAGTGA	0.207 ± 0.01

— the supplement of paper PMC4166925
